Source: article PMC4336329 (PLoS ONE, 2015)
Hit rate of the full screen: of about 310,000 compounds, about 2,200 (0.71%) showed an effect of 50% or more. The effect is printed as a negative number. The list shows a part of the results.

target: human ether-à-go-go-related gene (hERG) potassium channel (human, UniProt Q12809); experiment: primary screen, population patch clamp on CHO cells stably expressing hERG
Sequence (Q12809 whole entry, looked up): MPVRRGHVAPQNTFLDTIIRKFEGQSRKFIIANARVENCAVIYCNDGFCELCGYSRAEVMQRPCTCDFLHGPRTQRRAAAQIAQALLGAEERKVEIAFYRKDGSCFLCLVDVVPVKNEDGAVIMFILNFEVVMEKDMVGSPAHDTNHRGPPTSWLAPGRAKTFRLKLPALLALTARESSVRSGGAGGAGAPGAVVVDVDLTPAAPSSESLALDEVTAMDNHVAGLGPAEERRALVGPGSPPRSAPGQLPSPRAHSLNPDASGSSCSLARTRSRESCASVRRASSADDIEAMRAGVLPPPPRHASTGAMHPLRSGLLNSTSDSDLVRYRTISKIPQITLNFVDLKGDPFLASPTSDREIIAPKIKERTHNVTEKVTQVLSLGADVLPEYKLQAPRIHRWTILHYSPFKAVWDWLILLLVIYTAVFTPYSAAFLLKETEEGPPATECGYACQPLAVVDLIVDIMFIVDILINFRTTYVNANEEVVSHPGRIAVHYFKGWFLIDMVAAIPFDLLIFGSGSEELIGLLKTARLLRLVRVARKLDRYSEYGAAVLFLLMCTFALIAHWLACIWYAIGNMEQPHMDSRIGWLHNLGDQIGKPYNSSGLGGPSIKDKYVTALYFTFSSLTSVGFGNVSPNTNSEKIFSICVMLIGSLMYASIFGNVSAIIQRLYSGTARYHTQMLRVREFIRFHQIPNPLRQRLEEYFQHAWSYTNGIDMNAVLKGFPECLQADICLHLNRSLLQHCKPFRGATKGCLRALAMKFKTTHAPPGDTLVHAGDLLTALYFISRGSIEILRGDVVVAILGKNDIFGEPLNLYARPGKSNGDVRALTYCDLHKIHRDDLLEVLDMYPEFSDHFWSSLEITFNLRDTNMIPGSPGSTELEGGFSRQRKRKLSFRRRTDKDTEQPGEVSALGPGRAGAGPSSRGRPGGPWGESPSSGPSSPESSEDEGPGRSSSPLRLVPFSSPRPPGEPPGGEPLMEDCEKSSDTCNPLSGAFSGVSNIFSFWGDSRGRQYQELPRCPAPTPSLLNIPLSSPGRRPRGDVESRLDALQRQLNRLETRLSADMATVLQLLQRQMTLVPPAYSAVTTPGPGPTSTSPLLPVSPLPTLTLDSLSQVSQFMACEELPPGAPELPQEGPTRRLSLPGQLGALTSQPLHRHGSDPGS

Compound	hERG current change (%, negative = inhibition) at 1uM [%]
COC(=O)c1nn(Cc2ccccc2)c(=O)c2ccccc12	1.42
CN(C)S(=O)(=O)N1CCN(CC(=O)Nc2ccc(F)cc2)CC1	-17.2
COc1ccc(CN2CCN(Cc3ccc(C)cc3)CC2)c(OC)c1.O=C(O)C(=O)O	-18.9
CCOc1cc(C2C(C#N)=C(N)Oc3cc(N)ccc32)ccc1O (centres unmarked)	8.54
COCCN1C2=C(COC(C)(C)C2)C(=S)NC1c1ccccc1 (centres unmarked)	-0.297
COc1ccc(NC(=O)COc2ccc3c(C)cc(=O)oc3c2)cc1S(=O)(=O)N1CCCCC1	-8.82
CN(C(=O)c1ccccc1OC1CCN(S(C)(=O)=O)CC1)C1CCOC1 (centres unmarked)	8
CCCN=CC1=C(O)CC(c2ccccc2)CC1=O (centres unmarked)	7.66
OCCC1CN(Cc2cccc3c2OCO3)CCN1C1CCCC1 (centres unmarked)	-0.371
O=C(N/N=C/c1cc([N+](=O)[O-])ccc1O)c1cccc2cc[nH]c12	4.18
CN(C)S(=O)(=O)N(CC(=O)N1CCC(Cc2ccccc2)CC1)c1ccccc1	12.3
COC(=O)c1ccccc1NC(=O)c1ccc(F)cc1	8.96
COc1ccc(C(O)CNc2ccc(C)cc2)cc1 (centres unmarked)	3.93
Cc1cc2occ(CC(=O)N(C)CC(=O)Nc3ccccc3C(F)(F)F)c2cc1C	0.242
O=C(OCC(=O)N1CCN(C(=O)c2ccco2)CC1)c1ccc(Cl)cc1	-5.66
CC(C)Cc1nnc(NC(=O)CSc2nc(O)c(-c3ccccc3)c(=O)[nH]2)s1	18.2
COc1ccc(C/C(N)=N/OC(=O)Cc2ccc(OC)c(OC)c2)cc1	2.45
Cc1ccc(NC(=S)N(CCN(C)C)Cc2cccs2)c(C)c1	6.69
O=C1CCc2cc(S(=O)(=O)N3CCN(Cc4ccc5c(c4)OCO5)CC3)ccc2N1	-46.1
COc1ccc(C(=O)NCCc2c[nH]c3ccc(OC)cc23)cc1	12.9
COc1cc(N)c(Cl)cc1NC(=O)c1ccccc1	14.1
CC1CCCCC1NS(=O)(=O)c1ccc(S(=O)(=O)NCc2ccncc2)cc1 (centres unmarked)	12.4

Compound	hERG current change (%, negative = inhibition) at 1uM [%]
CC(=O)c1cccc(N(CC(=O)Nc2ccc(F)cc2)S(C)(=O)=O)c1	2.01
COc1ccc(S(=O)(=O)N2CCOC23CCN(S(=O)(=O)c2ccc(Cl)cc2)CC3)cc1	6.09
O=C(COC(=O)CNC(=O)c1ccco1)Nc1ccccc1OC(F)F	10.5
CCOC(=O)c1[nH]cnc1C(=O)NCc1ccccc1	4.43
CSc1nnc(SCC(=O)NC(=O)c2ccccc2)s1	13.4
C=CCC(Nc1ccccc1)c1cccc(OC)c1OC (centres unmarked)	10.1
CCOc1ccc(NC(=O)CCNC(=O)Cn2ccc3ccccc3c2=O)cc1	11.9
COc1cc(C=O)ccc1OCc1ccc(Cl)nc1	14.5
CCSc1ccc(-c2cccc([N+](=O)[O-])c2)nn1	8.72
Cc1ccc(N(C)S(=O)(=O)c2ccc3c(c2)NC(=O)C(C)S3)cc1 (centres unmarked)	9.53
CC(=O)N1CC23C=CC(CC2CC12CCCCCC2)O3 (centres unmarked)	7.07
Cc1nn(-c2ccccc2)c(Cl)c1/C=N/NC(=O)c1cccnc1	3
CCCC1=C(C(=O)OCC)C(c2c(C)nn(-c3ccccc3)c2Cl)C(C#N)=C(N)O1 (centres unmarked)	-3.31
CC1CCC(C(=O)NC(C(=O)N2CCc3ccccc3C2)C(C)C)CC1 (centres unmarked)	5.96
CCC1=NN2C(=N)/C(=C\c3cccn3-c3ccc(C)cc3C)C(=O)N=C2S1	9.77
C=CCN1C(=O)c2ccc(C(=O)N(CCOC)c3c(N)n(CCCC)c(=O)[nH]c3=O)cc2C1=O	3.79
CC(C)C[C@@H](CO)N1CCN(Cc2ccc([N+](=O)[O-])cc2)CCC1=O	2.54
O=C(CN1C(=O)S/C(=C\c2ccc(O)c([N+](=O)[O-])c2)C1=O)Nc1ccc(N2CCOCC2)cc1	13.6
Cc1ccc(CNC(=O)CSc2ccsc2[N+](=O)[O-])cc1	3.28
CCNS(=O)(=O)c1ccc(NC(=S)N2CCc3ccccc32)cc1	19.4
CN1CCN(c2nc3cc(C(F)(F)F)ccc3n3cccc23)CC1.O=C(O)/C=C\C(=O)O	-3.43
Cc1ccccc1Cn1nc(C)c(NC(=O)c2cc3n(n2)C(C(F)F)CC(C(F)F)N3)c1C (centres unmarked)	3.34

Compound	hERG current change (%, negative = inhibition) at 1uM [%]
Cc1cccc(NC(=O)CSc2nc3[nH]ncc3c(=O)[nH]2)c1	7.93
Fc1ccccc1/C=N/Nc1ncnc2nc[nH]c12	11.4
Cc1ccc(S(=O)(=O)N2CCCCC2)cc1C(=O)NCCC1=CCCCC1	6.03
COCCN(C(=O)CCC(=O)Nc1nccs1)C(C(=O)NC(C)(C)C)c1ccc(F)cc1 (centres unmarked)	6.09
CCN(CC)CC(=O)Nc1ccccc1SCC(=O)Nc1ccsc1C(=O)OC	3.73
COc1nc(NCC2CCCO2)nc(N2CC3CC(C2)c2cccc(=O)n2C3)n1 (centres unmarked)	6.44
COc1ccc(CNCCC(c2ccc(OC)cc2)c2ccccc2OC)cc1 (centres unmarked)	-29.8
COc1cc(Cl)ccc1OCc1cc(C(=O)N(C)CCc2cnn(C)c2)no1	-1.69
Cn1c(=O)n(Cc2ccccc2Cl)c(=O)c2c1[nH]c(=S)n2C	10.8
CC1(C)CC(=O)C2=C(C1)N(c1ccc(F)cc1)C(=O)CC2c1ccccc1 (centres unmarked)	13.2
Cc1ccc(N2C(=O)C3Sc4[nH]c(=O)sc4C(c4ccccc4)C3C2=O)cc1 (centres unmarked)	12
O=C(Cc1ccccc1)Oc1cccc(N2C(=O)CCC2=O)c1	14.8
O=C(NC1CCCc2ccccc21)c1ccc(Cl)nc1 (centres unmarked)	9.37
COc1ccc(CN(C)C(=O)C2CCN(C(=O)Nc3ccccc3)CC2)cc1	-7.59
CC(=O)c1n[nH]nc1NC(=O)c1ccccc1	3.71
COc1ccc(C(=O)N2CCC(C(=O)Nc3ccc4c(c3)OCCO4)CC2)cc1	-13.1
CN1CCc2cccc(Cl)c2CC1.Cl	8.79
COc1cccc(NC(=O)c2ccc3c(O)c(S(=O)(=O)c4ccccc4)c(=O)[nH]c3c2)c1	13.3
CCOc1ccccc1NS(=O)(=O)c1c(C)[nH]c(C)c1C(=O)N1CCCCC1	7.93
O=S1(=O)[C@H]2C[C@@H]3C=C[C@@]2(CN1Cc1ccc(F)cc1)O3	-1.84
COc1ccc(-c2nc(NC(C)=O)sc2-c2ccccc2)cc1	26.8
COc1ccccc1CNC(=O)CN(C)S(=O)(=O)c1ccc2c(c1)c(=O)n(C)c(=O)n2C	14.7

Compound	hERG current change (%, negative = inhibition) at 1uM [%]
Cc1cccc(C)c1NC(=O)CNC(=O)c1ccc(S(=O)(=O)NCc2ccco2)cc1	8.87
COc1ccc(/C=C/C(=O)NCCSCc2ccco2)cc1OC	14.5
O=C(c1cc(Cl)nc2ccccc12)N1CCN(S(=O)(=O)c2ccccc2[N+](=O)[O-])CC1	4.54
CCOC(=O)c1cnc(COc2ccc(OC)cc2)[nH]c1=O	6.43
Clc1cccc(Cl)c1CSc1nnc(CN2CCOCC2)n1-c1ccccc1	1.02
CCOC(=O)N1CCN(C(=O)CN2C(=O)CC(C)(C)S(=O)(=O)c3ccccc32)CC1	14.7
CCCCOc1cccc(C(=O)NC(=S)Nc2cccc(NC(=O)c3ccccc3Cl)c2)c1	2.46
CCC(CC)c1nnc(NC(=O)c2ccc([N+](=O)[O-])cc2)s1	8.05
CCOC(=O)c1c(S(=O)(=O)NCc2cccs2)c(C)n(C)c1C	7.18
Cc1cccc(Cl)c1NC(=O)N1CCCN(c2nc3ccc(Cl)cc3s2)CC1	5.09
COc1ccc([C@@H]2[C@@H]3C(=O)N(C(C)(C)C)C(=O)[C@@H]3[C@]3(Cc4ccc(Cl)cc4)C(=O)N(c4cccc(C)c4)C(=O)N23)cc1	15
Cc1ccc2nc(NC(=O)CS(=O)(=O)Cc3ccccc3)sc2c1	13.8
C=CCc1ccc2oc(C(=O)OCC)cc(=O)c2c1O	12.2
COc1cccc(C2CC(c3ccc(NS(C)(=O)=O)cc3)=NN2C(=O)c2ccccc2)c1OC (centres unmarked)	-8.83
CC(C)c1ccc(NC(=O)CSc2n[nH]c(=O)n2-c2ccc3c(c2)OCCO3)cc1	7.34
CN1CCN(C(=O)c2ccc(N(Cc3ccc(Cl)cc3)S(C)(=O)=O)cc2)CC1	11.9
CCn1c2ccc(Cl)cc2c2nc3ccccc3nc21	13
O=C1CC(c2ccccc2)CC(O)=C1C=NCCCN1CCOCC1 (centres unmarked)	-4.01
CN(CCCC1CCCC1)C(=O)CC1C(=O)NCCN1Cc1ccc(F)cc1 (centres unmarked)	9.35
Cc1cccc(N2CCN(C(=O)C(NS(=O)(=O)c3cccs3)c3ccccc3)CC2)c1C (centres unmarked)	2.45
